The whole screen tested about 410,000 compounds, of which about 530 (0.13%) were called active. Inconclusive results, whose numbers are uncertain, are shown with a selection of clear calls. Calls follow the shape of the dose curve; as a rule, active = well fitted inhibition curve with a large enough effect; inconclusive = small, poorly fitted or top-dose-only effect, or another doubt; inactive = no such curve, though single readings can be large or run the other way. A potency beside an inconclusive call is a rough fit, not a confirmed value.
Test: qHTS of GLP-1 Receptor Inverse Agonists: Cytotox Screen
Settings: HEK293 cAMP-luciferase reporter cells, luminescence, 24 h; activity change, negative = inhibition: at 38.3 µM (top of the series) unless noted
In short: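 Seeding density was 200 cells/uL; after overnight-length (12 h) culture, 23 nL compounds went on for 24 h at 37 °C. Readout used a luciferase detection reagent, luminescence taken after 12 min at room temperature.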
% is scaled to controls: 0 for no effect and ±100 for the full control effect; potency is read from the fitted curve at half-maximal effect.

Structure (SMILES) | Potency | activity change, negative = inhibition
COc1ccc(C(NC(=O)C(C)C)c2ccc3cccnc3c2O)cc1 (configuration not stated) | inconclusive: 0.501 µM [inhibitor, full curve, poor fit] | 
O=C(C1CCN(c2ncnc3c2nc2n3CCCCC2)CC1)N1CCN(c2cccc(Cl)c2)CC1 | inconclusive: 22.4 µM [inhibitor, single point] | 
O=C(Nc1ccc(Br)c(C(F)(F)F)c1)c1ccccc1 | inconclusive: 10 µM [inhibitor, single point] | 
Clc1ccc(/C=N/Nc2ncnc3ccccc23)cc1Cl | active: 2.24 µM | 
O=C(/C=C/c1ccc(O)c(O)c1)c1ccc(S(=O)(=O)N2CCCCCC2)cc1 | inconclusive: 12.6 µM [inhibitor, single point] | 
CCCc1nc2c(=O)n(C)c(=O)nc-2n(C)n1 | inconclusive: 5.62 µM [inhibitor, full curve, poor fit] | 
Cc1ccccc1-n1nnnc1SCC(=O)Nc1ccc(N2CCN(C)CC2)cc1 |  | inactive: -19.3%
O=[N+]([O-])c1cccc(N=Nc2ccc(O)cc2O)c1 | inconclusive: 3.55 µM [inhibitor, partial curve, poor fit] | 
O=C(CSc1nncn2c1cc1sccc12)Nc1ccc(Br)cc1F |  | inactive: 3.36%
COc1ccc(OC)c(NCc2nnc(-c3ccccc3)o2)c1 |  | inactive: 0.475%
Cc1ccc(N=C2NC(=O)/C(=C/c3cccn3C)S2)c(C)c1 | inconclusive: 28.2 µM [inhibitor, single point] | 
O=C(N/N=C/c1ccccn1)c1cccs1 | inconclusive: 15.8 µM [inhibitor, single point] | 
CCn1c(=O)n(CC)c2cc(S(=O)(=O)NCCOc3ccccc3)c(C)cc21 | inconclusive: 0.501 µM [inhibitor, partial curve, poor fit] | 
CCOC(=O)CSc1nsc(SCC(=O)OCC)c1C#N |  | inactive: 78.6%
Cc1ccc2nc(-c3ccc(SCC(=O)Nc4nnc(C)s4)nc3)[nH]c2c1 | inconclusive: 28.2 µM [inhibitor, single point] | 
Nc1ccc(N2CCN(c3ncc(C(F)(F)F)cc3Cl)CC2)c(C(F)(F)F)c1 |  | inactive: 4.4%
COc1cc(OC)c(OC)cc1C=NCC1(c2ccccc2)CCCC1 | inconclusive: 15.8 µM [inhibitor, single point] | 
CC(Oc1ccc(Cl)cc1Cl)C(=O)Nc1ccc(N2CCN(C)CC2)cc1 (configuration not stated) | inconclusive: 11.2 µM [inhibitor, single point] | 
CCOc1ccc(Oc2c(/C=N/NC(=O)COc3ccccc3OC)c(C)nn2-c2ccccc2)cc1 | inconclusive: 11.2 µM [inhibitor, partial curve, poor fit] | 
O=C(Nc1cccc(NC(=O)c2cccs2)c1)c1ccc2c(c1)OCO2 | inconclusive: 14.1 µM [inhibitor, single point] | 
CCN(CC)CCCNC(=O)c1cn(CC)c2ccc(S(=O)(=O)N(C)C3CCCCC3)cc2c1=O | inconclusive: 11.2 µM [inhibitor, single point] | 
NC(=O)c1cccc(-c2ccnc3c2CC(C(=O)NCc2ccc(F)c(F)c2)O3)c1 (configuration not stated) | inconclusive: 20 µM [inhibitor, single point] | 
N=C(N)c1ccc(N=Nc2c(O)ccc3c2[nH]c2ccccc23)cc1 | inconclusive: 20 µM [inhibitor, single point] | 

Structure (SMILES) | Potency | activity change, negative = inhibition
O=[N+]([O-])c1ccc(CSC2=NCCN2)cc1 |  | inactive: 13.6%
COc1ccc(NC(=O)c2ccc(Cl)nc2)cc1S(=O)(=O)N1CCCCC1 | inconclusive: 3.55 µM [inhibitor, partial curve] | 
O=C(NC(NNc1ccc([N+](=O)[O-])cc1)(C(F)(F)F)C(F)(F)F)c1ccc(F)cc1 | inconclusive: 31.6 µM [inhibitor, single point] | 
COc1ccc(F)cc1C(=O)C1CCCN(Cc2cn(C)c3ccccc23)C1 (configuration not stated) | inconclusive: 10 µM [inhibitor, single point] | 
OC(COc1ccccc1)CN1CCN(C(c2ccccc2)c2ccccc2)CC1 (configuration not stated) |  | inactive: -15.2%
COc1ccccc1N=Nc1c(C)[nH][nH]c1=O |  | inconclusive: -50.6% [inhibitor]
O=C(N/N=C/c1ccccc1OC(=O)c1ccc2c(c1)OCO2)c1cccc(F)c1 | inconclusive: 8.91 µM [inhibitor, partial curve] | 
S=C(NN=Cc1ccc2c(c1)OCO2)NN=Cc1ccc2c(c1)OCO2 | inconclusive: 28.2 µM [inhibitor, single point] | 
COC(=O)c1ccc(NC(=S)NC2CCCCC2C)cc1 (configuration not stated) | inconclusive: 11.2 µM [inhibitor, single point] | 
O=C(NN=C(Cc1ccccc1)Cc1ccccc1)c1ccc(F)cc1 |  | inactive: 3.66%
CCN(CC)CCC(=O)Nc1ccc2c(c1)N(C(=O)CN(CC)CC)c1ccccc1CC2 | inconclusive: 5.62 µM [inhibitor, partial curve] | 
O=C(NCCc1ccccc1)c1coc(=O)c(Br)c1 | active: 5.01 µM | 
O=C(CC1(O)C(=O)Nc2cc(Cl)cc(Cl)c21)c1ccccc1O (configuration not stated) | inconclusive: 10 µM [inhibitor, partial curve, poor fit] | 
Cc1nc(-c2cccc(NC(=O)Nc3ccc([N+](=O)[O-])cc3)c2)no1 | inconclusive: 20 µM [inhibitor, partial curve, poor fit] | 
Cc1ccccc1OCCSc1nc2ccc(NC(=O)c3ccccc3)cc2s1 |  | inactive: -7.06%
CC(C)c1nc2sc3c(SCCN(C)C)ncnc3c2c2c1CCC2 | inconclusive: 28.2 µM [inhibitor, single point] | 
Cc1cccc(-c2nc(NCCCN3CCOCC3)c3ccccc3n2)c1 | inconclusive: 11.2 µM [inhibitor, single point] | 
Cc1ccc(S(=O)(=O)c2ccc(Oc3cccc(C)c3)cc2)cc1 |  | inactive: -2.9%
CCN(CC(=O)Nc1ccc(OC)cc1)C(=O)c1ccc2c(c1)NC(=O)C(C)S2 (configuration not stated) | inconclusive: 10 µM [inhibitor, partial curve, poor fit] | 
Cc1cc(C)c2cc(CN(Cc3cccs3)Cc3nnnn3CC3CCCO3)c(=O)[nH]c2c1 (configuration not stated) | inconclusive: 12.6 µM [inhibitor, single point] | 
C[C@H]1CN([C@@H](C)CO)S(=O)(=O)c2ccc(C#CC(C)(C)O)cc2O[C@H]1CN(C)Cc1ccccc1 | inconclusive: 31.6 µM [inhibitor, partial curve, poor fit] | 
COc1ccc(C(=O)Nc2nnc(-c3ccco3)s2)cc1 | inconclusive: 4.47 µM [inhibitor, full curve] | 
Nc1cc2nc3ccccc3oc-2cc1=O | inconclusive: 28.2 µM [inhibitor, single point] | 

Structure (SMILES) | Potency | activity change, negative = inhibition
Cc1ccc(NC(=O)Cn2c(O)c(N=NC(N)=S)c3ccccc32)cc1 | inconclusive: 12.6 µM [inhibitor, partial curve, poor fit] | 
CCOc1ccc2c(c1)c(N=NC(=N)N)c(O)n2C | inconclusive: 7.08 µM [inhibitor, partial curve, poor fit] | 
Cc1nc(N2CCCCC2C)c2c(C)c(C(=O)Nc3cccc(C(F)(F)F)c3)sc2n1 (configuration not stated) | inconclusive: 10 µM [inhibitor, single point] | 
CC1=C(C)CS(=O)N(c2ccc(S(N)(=O)=O)cc2)C1 (configuration not stated) | inconclusive: 31.6 µM [inhibitor, single point] | 
CSc1nsc(SC)c1C(=O)NC(=O)Nc1cccnc1 |  | inactive: -4.06%
CN(Cc1ccc(Cl)cc1Cl)C(=O)c1cc(=O)c2ccccc2o1 |  | inactive: 9.65%
c1ccc(Cn2nnc3c(N4CCCCCC4)ncnc32)cc1 | inconclusive: 28.2 µM [inhibitor, single point] | 
CC(NC(=O)C(=O)N1CCCCC1)C(c1cccs1)N1CCN(Cc2ccccc2)CC1 (configuration not stated) | inconclusive: 12.6 µM [inhibitor, partial curve, poor fit] | 
O=C(Nc1ccc2c(c1)OCO2)c1cc(-c2ccc(O)cc2)on1 | inconclusive: 12.6 µM [inhibitor, partial curve, poor fit] | 
Cc1ccc(S(=O)(=O)NNC2=NS(=O)(=O)c3ccccc32)c(C)c1 | inconclusive: 28.2 µM [inhibitor, single point] | 
COc1cccc(CNC(=O)C(=O)NCC(c2ccco2)S(=O)(=O)c2cccs2)c1 (configuration not stated) |  | inactive: 0.945%
CC(C)N(C(C)C)S(=O)(=O)c1ccc(NN)nc1 | inconclusive: 28.2 µM [inhibitor, single point] | 
CCOc1c2ccoc2nc2c(OC)c(OC)ccc12 | inconclusive: 28.2 µM [inhibitor, single point] | 
Cc1ccccc1NC(=S)NNc1ncc(C(F)(F)F)cc1Cl |  | inactive: -10.8%
Cc1cc(C)c2nc(-c3cccc(Cl)c3)c(C)c(C(=O)N3CCOCC3)c2c1 |  | inactive: -1.17%
COc1ccccc1Oc1nc2ccccn2c(=O)c1/C=C(\C#N)C(=O)Nc1c(C)n(C)n(-c2ccccc2)c1=O | inconclusive: 28.2 µM [inhibitor, single point] | 
CC1(Cc2ccc3c(c2)OCO3)C(=O)Nc2ccc(-c3cccc(C(F)(F)F)c3)cc21 (configuration not stated) | inconclusive: 28.2 µM [inhibitor, single point] | 
CCn1c(=O)c(C(=O)NNC(=O)c2ccccc2F)c(O)c2ccccc21 |  | inactive: 12.4%
Cn1ccnc1CN1CCCCC1C(=O)Nc1ccc(Oc2cccnc2)cc1 (configuration not stated) | inconclusive: 28.2 µM [inhibitor, single point] | 
COCC(=O)NC1CC2CCCC(C1)N2Cc1ccccc1 (configuration not stated) |  | inactive: -3.74%
C/C(Cn1nc([N+](=O)[O-])cc1C)=N\NC(=O)COc1c(Cl)cc(Cl)cc1Cl | inconclusive: 28.2 µM [inhibitor, single point] | 

Reference: PubChem BioAssay AID624418 (National Center for Advancing Translational Sciences (NCATS), 2012)
